According to patent US20250263499A1 (SHENGHE CHINA BIOPHARMACEUTICAL, published 2025):

Molecular target: T1, human CD24 protein (ACRO) (human, UniProt P25063 27-59)
T1 construct: also called analyte human CD24 protein
T1 chain (looked up): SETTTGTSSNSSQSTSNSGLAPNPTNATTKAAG
Test: BLI (ForteBio Octet RED96e), antibody immobilised, human CD24 protein as analyte
Procedure: ForteBio […] (BLI) was used to detect the affinity of humanized antibodies. The sample to be tested (solidified) was diluted to 20 μg/mL with 0.02% PBST (buffer). The analyte human CD24 protein (ACRO) was diluted to 100 nM with 0.02% PBST (buffer) as the initial concentration, and then diluted by double gradient for 7 gradients starting from this concentration, and a negative control (buffer) was performed.
The molecular interaction analysis instrument (ForteBio; Octet RED96e) was operated, and 200 μL of curing buffer (0.02% PBST) was added to a pre-wetted plate, and the sensor was pre-wetted for 5-10 min. Diluted samples and other reagents for assay were added into wells in the sample plate corresponding to the pre-wetted sensor.

B1: humanized antibody hu-02-L3H8 (antibody, human IgG1, kappa)
heavy: EVQLQESGPGLVKPSQTLSLTCTVSGYSITSGYTWHWIRQFPGNKLEWMGHIQYTGNTKYNPSLESRITISRDTSKNQFSLKLSSVTAADTATYYCARGSTNSNDYWGQGTLVTVSS[human IgG1 constant region not written out]
light: DIVMTQSPSSLAVSLGERATINCKSSQSLLYSNDQKNYLAWYQQKPGQSPKLLIYWASTRESGVPDRFSGSGSGTDFTLTISSLQAEDVAVYYCQQYFIYPLTFGGGTKLELKRTVAAPSVFIFPPSDEQLKSGTASVVCLLNNFYPREAKVQWKVDNALQSGNSQESVTEQDSKDSTYSLSSTLTLSKADYEKHKVYACEVTHQGLSSPVTKSFNRGEC
notes: Humanized from ms-02: light chain L3, heavy chain H8
Kd: 10 nM
